The source of these data is the RNAGym collection of RNA variant scans (doi:10.1093/nar/gkz1192).

Read counts are not given, so values of variants with three or more changes are uncertain.

Sequences and labels used below:
B1: CPEB3 Ribozyme (parent)
chain: UAACAGGGGGCCACAGCAGAAGCGUUCACGUCGCAGCCCCUGUCAGAUUCUGGUGAAUCUGCGAAUUCUGCUGUAUAUCUC

This data set covers variants of B1. The data set is described as follows: self-cleavage, relative activity (ratio to wild type); higher = more cleavage; in vitro, sequencing. The method in brief:
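Libraries of CPEB3 self-cleaving ribozyme mutants came from rounds of error-prone PCR and carried barcodes, which DNA sequencing matched to variants. In vitro transcription used T7 RNA polymerase at 37°C for 5 hours, with a further 15 min in DNase I before EDTA stopped the reaction; the ribozymes cleaved during both steps. The RNA was reverse transcribed with template switching and sequenced on Illumina. Relative activity is the cleaved/total read fraction of a variant divided by that of the unmutated ribozyme, averaged over three batches with at least 5 reads.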
As for A5G A45G A56G U78C, the self-cleavage was found to be 0.39.
A5G A45G U49C: the self-cleavage turned out to be 0.39.
As to A5G A35G U41A U49C U51C, the self-cleavage stood at 0.06.
In the case of A5G A57G A64U U69C U80C, the self-cleavage was 0.08.
Regarding A5G A21U A35U U48C U67A, the self-cleavage was found to be 0.04.
Turning to A5G A13U U25C A28U U49C, the self-cleavage was 0.31.
As to A5G A28G U60G, the self-cleavage is 0.42.
As for C4U G6C A18G C38A U41C U54A, the self-cleavage is 0.09.
On to A5G A21G U26A U67C, for which the self-cleavage was found to be 0.34.
For the variant A5G A21G U26A G52U A57G, the self-cleavage is 0.35.
As for A5G A18U A57G, the self-cleavage was 0.31.
In the case of A5G A13U U48C U67G, the self-cleavage came out at 0.27.
Turning to C4U G10U U26A U51G U78C, the self-cleavage worked out at 0.05.
Turning to C4U A20U A56G U58A U72C, the self-cleavage stood at 0.18.
Next, A5G A15G A28G U41A U51A U69C: 0.09; A5G A47G A57G A77G: 0.3; C4U G8A C12G G33C C40A U54A A77G: 0.03.
Regarding A5C U25C U72C A75G C81U, the self-cleavage stood at 0.09.
In the case of A5G C11G A13G A18G U67C U69A, the self-cleavage turned out to be 0.3.
On to A5G A21G U80A, for which the self-cleavage came to 0.27.
In the case of C4G A5U U43A, the self-cleavage was 1.14.
As for A5G A13U A15G U26A A47U A64G G70U, the self-cleavage turned out to be 0.05.
In the case of A5G A18G U31C G61A, the self-cleavage stood at 0.09.
Take A5C U31G U67G: the self-cleavage is 0.11.
As to A5C A15U A18G U25C U69C, the self-cleavage was 0.27.
Take C4U A45G U72G: the self-cleavage is 1.03.
The figure for A5G A15G G52U is 0.53.
As for A5G A28U A64G, the self-cleavage was 0.62.
On to A5G A13U A28C U31A A45C U67A C68U, for which the self-cleavage stood at 0.25.
On to A5G A18G U60A A75G, for which the self-cleavage turned out to be 0.3.
With A5G A56U A57G U60C A64U, the self-cleavage came out at 0.08.
Next, A5G A18G U58C A64U U67A U72C: 0.17; A5G A20G U41G A45G U58C: 0.32.
Take A5G A56C U58A U72C: the self-cleavage stood at 0.17.
The figure for A5C A28G U31A C32U U60G is 0.08; for C4G A5G U54C U76C it is 0.78; for A5G C11A A18G G46U U54G U67A it is 0.05.
Next, C4U A35U A57G U58A U72C: 0.27; C4U G30A U43C: 0.49.
Turning to C4U U72A U80C, the self-cleavage turned out to be 1.03.
Turning to A5G A35U U41C U78C, the self-cleavage came out at 0.12.
With A5G A21G A77G, the self-cleavage was determined as 0.28.
Turning to A5C A47U A56U U58C U72A, the self-cleavage was determined as 0.08.
As to C4U U51C A65G, the self-cleavage was determined as 0.78.
The figure for A5G A45G U69C A75G is 0.51.
On to A5G C11U C40G A65G, for which the self-cleavage was determined as 0.22.
As for C4G A15G G19U U31A U58C U67A, the self-cleavage came to 0.13.
On to A5C G52A U78A, for which the self-cleavage came to 1.11.
Next, C4A U43C U51G: 1.07.
In the case of A5G A13G U49C, the self-cleavage is 0.12.
For the variant A5G C17A A35C U51C, the self-cleavage came out at 0.41.
A5G A15C U51C: the self-cleavage worked out at 0.31.
Regarding A5G A18U U31C U67G U76C, the self-cleavage worked out at 0.24.
In the case of A5C G30A A35U A64U, the self-cleavage turned out to be 0.25.
On to C4U A21G A47C A57G A65G U67C U72C, for which the self-cleavage stood at 0.07.
In the case of C4A U31G U58C, the self-cleavage was determined as 0.39.
For the variant C4U U25C U66C U80A, the self-cleavage came to 0.18.
Next, A5C C32U U74C A75G: 0.51; A5G C29G A35G U43A C81G: 0.53.
Turning to A5C C23U U41C C71U G73C U78C U80C, the self-cleavage is 0.09.
Regarding C4U U66C U72C U74A, the self-cleavage was determined as 0.65.
On to A5G A20G U26C A56G G73A, for which the self-cleavage worked out at 1.03.
Next, A5G A20U A35U: 0.28; A5G C17U A28G U51C U78C: 0.08.
Consider A5G A21G A28U G33U A77U, for which the self-cleavage stood at 0.17.
Regarding C4U U54G U60A U67C, the self-cleavage was found to be 0.31.
In the case of C4U U25C U26G A56U, the self-cleavage was determined as 0.29.
A5G C23U U31A U74C U76A: the self-cleavage came out at 0.14.
Consider A5G A20G U25C A75G U78C, for which the self-cleavage amounted to 0.13.
Regarding C4U C34U U54A, the self-cleavage worked out at 0.63.
The figure for A5G A15G U41A A45G U66C A77G is 0.75; for A5C A18G U41C U54G U74A it is 0.25.
On to A5G C14U G52U A56U U78C, for which the self-cleavage came to 0.74.
On to A5G A18G A20U A28G U43C A45G, for which the self-cleavage was determined as 0.68.
Take A5G C17G U48C U67A: the self-cleavage was found to be 0.25.
A5G A20U A28G U31A A65G A75G U80A: the self-cleavage amounted to 0.11.
Next, C4U U25C A45G A65G G73A: 0.09.
As to C4G U69A U78C, the self-cleavage came to 1.05.
Next, A5C A57U U58A U60C C81U: 0.37; A5G C11U U41C A64G: 0.09; A5G A21G U78C: 0.61.
Take C4U C38U U67C: the self-cleavage was 0.2.
The figure for C4U A15U U43A G52U A57G A75G is 1.27.
